Test results: PubChem BioAssay AID1745845 (National Center for Advancing Translational Sciences (NCATS), 2022)
The whole screen tested about 360,000 compounds, of which about 2,600 (0.72%) were called active. Inconclusive results, whose numbers are uncertain, are shown with a selection of clear calls. Calls follow the shape of the dose curve; as a rule, active = well fitted inhibition curve with a large enough effect; inconclusive = small, poorly fitted or top-dose-only effect; inactive = no such curve, though single readings can be large or run the other way. Potencies beside an inconclusive call are fits to weak or partial responses and may not hold up.

assay: Primary qHTS for Inhibitors of ATXN expression; details: HEK-293 ATXN2-luciferase reporter, luminescence, 24 h; series mostly up to 57 µM; also: nearly all actives have a fitted effect of over 55% in size
Excerpt: University of Utah School of Medicine, Salt Lake City, Utah
Spinocerebellar ataxia type 2 (SCA2) is a multisystem neurodegenerative disease caused by a dominantly acting mutation leading to expansion of a polyQ domain in the ataxin-2 protein (ATXN2). SCA2 patients develop progressive ataxia and later lose function in other neuronal systems. Prominent parkinsonian signs develop in some patients. Like many neurodegenerative disorders, no symptomatic or disease-modifying treatments are known.
The primary objective of the proposed research is to identify compounds inhibiting ATXN2 expression and to test them for efficacy in SCA2 mouse models. We have developed a cell-based assay paired with an in vivo mouse model using identical luciferase expression constructs. This approach takes advantage of an ATXN2-luciferase transgene, with the luciferase gene flanked by the upstream and downstream portions of the ATXN2 gene. Here we describe a 5-7 dose quantitative high thoroughput screen (qHTS) for compounds lowering ATXN2 expression. We screened the NIH Molecular Libraries Small Molecule Repository (MLSMR) and NCGC's mechanistically annotated (MIPE) and drug repurposing (NPC) collections of compounds for lowering expression of an ATXN2-luciferase reporter in HEK-293 cells. The assay is a multiplexed cell viability assay to ensure target reduction in the absence of cytotoxicity. Secondary qHTS assays included a CMV-luciferase reporter expressed in HEK-293 cells as well as a biochemical assay using recombinant luciferase to detect inhibitors of the reporter enzyme. Compounds that inhibit ATXN2 expression but is not cytotoxic were selected for confirmatory and secondary screens.
PROTOCOL TABLE (as described by Inglese J, Shamu CE and Guy RK. 2007)
SEQUENCE No. (e.g., 1, 2, 3, etc.); […] (e.g., Cells, Incubation, Reagent, etc.); VALUE; DESCRIPTION.
1; Cells; 4 uL; white, solid bottom, 1536-well Greiner assay plate.
2; Incubation; 2 hr; 37 degree C in 5% humidified CO2.
3; Compounds; 23 nL; Kalypsis pintool (Wako USA) equipped with a 1536-well pin head.
4; Incubation; 24 hr; 37 degree C in 5% humidified CO2.
5; Reagent; 1 uL; Gly-Phe-7-Amino-4-trifluoromethylcoumarin.
6; Incubation; 30 min; 37 degree C in 5% humidified CO2.
7; Detection; Fluorescence; ViewLux plate reader (PerkinElmer).
8; Reagent; 3 uL; SteadyGlo luciferase solution (Promega).
9; Incubation; 5 min; room temperature.
10; Detection; Luminescence; ViewLux plate reader (PerkinElmer).
NOTES (numbers refer to Sequence numbers above)
1. S2 cells expressing ATXN2-luciferase reporter were suspended in phenol-red free DMEM and dispensed in assay plates using a Multidrop Combi dispenser (Thermo Fisher Scientific).
2. Assay plates were incubated. Evaporation was prevented by covering assay plates with metal lids containing holes to allow gas diffusion.
3. Compounds were added in a dose response manner with the final concentrations of 57, 11.4, 2.28, 0.46, 0.091, 0.018, 0.0037 uM. Vehicle-only plates, with DMSO being pin-transferred to columns 5-48, were inserted uniformly at the beginning and the end of each library to monitor and record any shifts in assay performance.
5. 125 uM Gly-Phe-7-Amino-4-trifluoromethylcoumarin (MP Biomedicals) working concentration was used at a final concentration of 25 uM.
7. To assess cell viability; the assay plates were read using the ViewLux high-throughput CCD imager (PerkinElmer), wherein single end-point fluorescence measurement was acquired (excitation 405/10; emission 540/25 nm).
8. Detection reagent SteadyGlo Luciferase (Promega) was added to the assay plate.
10. Luminescence is then measured on the ViewLux imager equipped with a clear emission filter using a 2 sec exposure. All screening operations were performed on a fully integrated robotic system (Kalypsys) containing one RX-130 and two RX-90 anthropomorphic robotic arms (Staubli).
[…]
Potency is read from the fitted curve at half-maximal effect; tags tell the direction and shape of the fitted curve.

| Compound | Potency |
| --- | --- |
| CN(C)CCCN(C(=O)c1ccc(S(=O)(=O)N(C)Cc2ccccc2)cc1)c1nc2cc3c(cc2s1)OCO3 | inconclusive: 31.6 µM [inhibitor, partial curve, poor fit] |
| CC(=O)Nc1cccc(-c2ccnc3c2CC(C(=O)Nc2cccc(OC(F)(F)F)c2)O3)c1 (stereo unspecified) | inconclusive: 35.5 µM [inhibitor, single point] |
| CCCCCc1ccc(C(=O)CCCC)c(=S)[nH]1 | inconclusive: 25.1 µM [inhibitor, single point] |
| COc1ccccc1-c1ccc2c(c1)C(C)(Cc1ccccc1C#N)C(=O)N2 (stereo unspecified) | inconclusive: 39.8 µM [inhibitor, partial curve, poor fit] |
| CC1CCN(C(=O)COC(=O)/C=C/c2ccc([N+](=O)[O-])cc2)CC1 | inactive |
| CC1=C(c2ccccc2)C(=S)NC(C)(C)C1 | inconclusive: 25.1 µM [inhibitor, partial curve, poor fit] |
| Cc1ccc(NC(=O)COc2ccccc2C(N)=O)cc1S(=O)(=O)N1CCCCCC1 | inconclusive: 11.2 µM [inhibitor, partial curve, poor fit] |
| C=CC[C@H](CC(=O)N[C@H](CO)Cc1ccccc1)C(=O)N[C@@H](COC(=O)[C@@H](CC=C)CC(=O)OC(C)(C)C)Cc1c[nH]c2ccccc12 | inconclusive: 35.5 µM [inhibitor, single point] |
| O=C(c1cc(-n2cnnc2)ccc1Cl)N1CCN(c2nc(-c3ccccc3)cs2)CC1 | inconclusive: 14.1 µM [inhibitor, partial curve] |
| O=C1[C@H]2[C@@H](c3ccccc3)N[C@]3(CCCN(Cc4ccco4)C3=O)[C@H]2C(=O)N1Cc1ccccc1 | inactive |
| O=[N+]([O-])c1ccc(/C=[N+](\[O-])[C@@H]2CCCC[C@@H]2/[N+]([O-])=C/c2ccc([N+](=O)[O-])o2)o1 | inconclusive: 37.7 µM [inhibitor, single point] |
| CN1CCCN(Cc2ccccc2C(F)(F)F)CC1 | inactive |
| CC(C)(C)c1ccc(-c2noc(CCC(=O)Nc3cccc(Cl)c3)n2)cc1 | inconclusive: 0.398 µM [inhibitor, partial curve, poor fit] |
| Cc1cc(Br)ccc1SCC(=O)N1CCN(S(=O)(=O)c2ccccc2)CC1 | inactive |
| CCc1nc2ccc(C(=O)Nc3cccc(OC)c3)cn2c1N(CC)Cc1cccc(Br)c1 | inconclusive: 31.6 µM [inhibitor, partial curve, poor fit] |
| Cc1cncn1CCc1nc2c3ccccc3nc(SCC(=O)Nc3ccccc3F)n2n1 | inactive |
